# Data: article PMC6919601, “Identification of Plasmodium dipeptidyl aminopeptidase allosteric inhibitors by high throughput screening” (PLoS ONE, 2019)
# Several values for one entry are separate records, joined by “and”; a condition that tells them apart may be missing. Equal entries are not always repeated. Among all 110,000 compounds or so, about 230 (0.21%) showed an effect of 50% or more. This is one part of the list.
# Biological target: DPAP1 (Plasmodium falciparum, UniProt Q8IIJ9)
# Assay: primary screen, percent inhibition; read by cleavage of a fluorogenic dipeptide substrate; higher = more effect of the substance
# Parameters: species or system P. falciparum D10 trophozoite lysates; single well
# 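Note: 30 min substrate incubation versus DMSO and 10 µM JCP410 controls.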
# Chain of DPAP1 (Q8IIJ9 whole entry, looked up): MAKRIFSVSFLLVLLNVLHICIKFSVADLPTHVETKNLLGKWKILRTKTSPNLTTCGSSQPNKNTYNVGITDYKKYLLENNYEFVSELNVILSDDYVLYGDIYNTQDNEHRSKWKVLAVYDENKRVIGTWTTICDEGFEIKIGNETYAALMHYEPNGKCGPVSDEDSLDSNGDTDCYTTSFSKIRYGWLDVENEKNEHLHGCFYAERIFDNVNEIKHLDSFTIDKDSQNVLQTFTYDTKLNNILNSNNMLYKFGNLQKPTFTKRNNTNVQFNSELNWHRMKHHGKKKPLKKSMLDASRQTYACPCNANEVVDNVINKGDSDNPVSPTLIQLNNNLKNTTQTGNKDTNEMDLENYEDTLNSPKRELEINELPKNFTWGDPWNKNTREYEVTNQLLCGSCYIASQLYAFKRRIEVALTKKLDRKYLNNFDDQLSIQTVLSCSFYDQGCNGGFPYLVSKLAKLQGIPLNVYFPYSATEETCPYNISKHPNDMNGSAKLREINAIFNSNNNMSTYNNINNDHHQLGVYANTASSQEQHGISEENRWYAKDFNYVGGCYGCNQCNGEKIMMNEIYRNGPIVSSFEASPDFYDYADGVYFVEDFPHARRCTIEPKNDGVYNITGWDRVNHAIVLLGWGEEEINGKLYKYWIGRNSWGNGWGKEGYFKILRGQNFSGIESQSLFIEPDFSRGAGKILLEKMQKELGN
row,Structure (SMILES),% Inhibition @ 10 uM
1,COc1ccc(OC)c(NC(=O)c2ccc(C)s2)c1,0.431%
2,CCC(C)NC(=O)Cn1c(=O)n(CCc2ccccc2)c(=O)c2c3c(sc21)CCCC3 (centres unmarked),2.93%
3,CCOC(=O)c1cc(O)c2c(ccc3[nH]c(-c4ccccc4)cc32)n1,16.1%
4,C=CCc1c(C)nc2ccc(C(=O)OCC)cc2c1Cl,1.27%
5,Cc1ccc(Cn2c(C)c3cnn(CC(=O)NC4CCCC(C)C4C)c(=O)c3c2C)cc1 (centres unmarked),-2.17%
6,Cc1c(-c2ccccc2)nc2c3ccccc3ccn12,4.52%
7,CCC(C)NC(=O)C1CCN(S(C)(=O)=O)CC1 (centres unmarked),2.05%
8,N#CC1C(=O)N=C(N2CCCCC2)NC12CCCCC2 (centres unmarked),1.91%
9,O=C(CSc1nc2ccccc2[nH]1)Nc1ccc(Br)cc1,11.3%
10,CCCCSC1=C(C#N)C(=O)NC(CC(C)C)S1 (centres unmarked),3.35%
11,CCCCN(C)CCNC(=O)c1cc2c(=O)oc3ccc(C)cc3c2s1,-4.31%
12,N#Cc1nc(COc2ccccc2)oc1NCc1ccc(F)cc1,1.35%
13,COc1ccc2c(CNCc3ccc(OC(C)C)cc3)c(C(=O)O)n(Cc3ccccc3F)c2c1,0.616%
14,CC(C)c1ccc(OCc2cccc(C(=O)O)c2)cc1,5.31%
15,O=C(Nc1nnc(Cc2ccccc2F)s1)c1ccccc1Cl,4.35%
16,O=C(c1cnn(-c2ccccc2)c1-n1cccc1)N1CCN(C2CCCCC2)CC1,0.137%
17,CCOC(=O)N1CCN(S(=O)(=O)N2CCCC(C(=O)NCCCN3CCC(C)CC3)C2)CC1 (centres unmarked),-1.34%
18,CC1CCCC(C)N1CCCNc1ncnc2onc(-c3ccc(F)cc3)c12 (centres unmarked),2.59%
19,Cc1cc2c(c(=O)n1Cc1cccs1)C(c1cccs1)C(C#N)=C(N)O2 (centres unmarked),-8.72%
20,Cc1ccc(C2C(C#N)=C(N)Oc3[nH]nc(-c4ccccc4)c32)cc1 (centres unmarked),-0.988%
21,COc1ccc(OC)c([N+]2=C3SCCCN3C(O)(c3cccs3)C2)c1 (centres unmarked),1.09%
22,CCN(CC)CC(=O)Nc1c2c(nc3ccccc13)N(C)CC2,-3.16% and -3.63%
23,Cc1cccc(NC(=O)c2ccc(C)c(C)c2)n1,2.82%
24,CCCN1CCN(CCCNC(=O)Cn2cc3c(n2)CCCC3)CC1,1.8%
25,COCC(=O)Nc1ccc(F)cc1F,-4.15%
26,COc1ccc(-c2sc(C(=O)O)c(C)c2C#N)cc1,9.79%

row,Structure (SMILES),% Inhibition @ 10 uM
1,Cc1ccc(/C=C2/SC(N3CCCCC3)=NC2=O)o1,3.05%
2,Cc1c2cnn(CC(=O)NC(C)c3ccc4c(c3)OCCO4)c(=O)c2c(C)n1Cc1ccc(F)cc1 (centres unmarked),-7.72%
3,COc1ccc(C(=O)N2CCN(c3nc4ccccc4o3)CC2)cc1OC,-0.834%
4,CCC(=C1C(=O)CC(C)(C)CC1=O)N1CCCC1,-3.46%
5,COc1ccc(Cn2ccn(CC(N)=O)c(=O)c2=O)cc1,-9.33%
6,Cc1ccccc1Cn1c(C)c(CNCCc2ccc(S(N)(=O)=O)cc2)c(C(=O)O)c1C,-3.67%
7,CC1(c2ccccc2)CC(C)(C)N(C(=O)c2ccc([N+](=O)[O-])cc2)c2ccccc21 (centres unmarked),1.08%
8,CC(C)NC(=O)c1cc2c(s1)-c1ccccc1SC2,2.85%
9,CCN(CC)C(=O)C(=O)c1cn(Cc2ccc(Cl)cc2)c2ccccc12,-0.92%
10,COc1cccc(C2=NCCc3cc4c(cc32)OCO4)c1OC,3.9%
11,Cc1ccc(S(=O)(=O)Cc2nc(-c3ccc(C(=O)NCCC(C)C)cc3)oc2C)cc1,-5.35%
12,COc1ccc(C2C(C(=O)c3ccc(OC)c(F)c3)=C(O)C(=O)N2Cc2cccnc2)cc1 (centres unmarked),-1.89%
13,Cc1nc2c(c(C)nn2-c2ccccc2)c(C)c1CCC(=O)NCC1CCN(CC(C)C)C1 (centres unmarked),-0.465%
14,O=C(c1ccco1)N1c2ccccc2Sc2ccccc21,-4.52%
15,COc1cccc(C(=O)Nc2ccc(S(=O)(=O)NCCc3ccccc3)cc2)c1,-2.67%
16,COCCNC(=O)Cn1nc(-c2ccc(Cl)cc2)ccc1=O,-3.58%
17,CCCNC(=O)C1CC(c2cc(OC)c(OC)c(OC)c2)=NO1 (centres unmarked),-5.79%
18,COc1ccc(NC(=O)c2ccccc2C)cc1,-7.3%
19,COc1cc2c(cc1OC)C1N(CC2)C(C(=O)c2cccs2)=NN1c1ccccc1 (centres unmarked),4.11%
20,Cc1ccc(C)c(NC(=O)c2cnn(-c3ccccc3)c2C)c1,-1.63%
21,O=C(NCc1ccccc1)C1CC1(c1ccccc1)c1ccccc1 (centres unmarked),2.55%
22,Brc1ccc(N2N=C(c3cccs3)CC2c2ccco2)cc1 (centres unmarked),0.827%
23,COc1ccccc1C1(CCNC(=O)c2ccccc2C(=O)O)CCOC(C)(C)C1 (centres unmarked),-0.85%
24,CCN1C(=O)C2(C(C#N)=C(N)OC3=C2C(=O)CC(C)(C)C3)c2ccccc21 (centres unmarked),7.2%
25,Cc1cc(=O)n2nc(N3CCC(C(=O)NCC(C)c4ccccc4)CC3)sc2n1 (centres unmarked),-0.281%
26,COCCN1C(=O)c2ccccc2C(C(=O)N2CCC(c3ccccc3)C2)C1c1cccs1 (centres unmarked),1.97%

row,Structure (SMILES),% Inhibition @ 10 uM
1,OC[C@H]1O[C@@H](n2c(Br)nc3c(O)ncnc32)[C@H](O)[C@@H]1O,-2.35%
2,NC(=O)c1ccccc1C(=O)Nc1cccc2ccccc12,0.716%
3,CC(C)(C)OC(=O)Nc1ccncc1C(=O)c1ccccc1,-7.01%
4,Cc1ccc(C(=O)N2CCN(c3ccc(NC(=O)c4ccco4)cc3)CC2)cc1,3.69%
5,CCn1c(C(=O)O)c(CNCCc2ccc(OC)c(OC)c2OC)c2ccc(OC)cc21,1.8%
6,O=C(O)CC(NS(=O)(=O)c1ccc([N+](=O)[O-])cc1)c1ccccc1 (centres unmarked),-0.0372%
7,CC(NC(=O)c1c(O)nc2c(c1O)CCCC2)c1ccccc1 (centres unmarked),-0.458%
8,CCC(C(=O)Nc1ccc(Cl)cc1)N1CCCC1=O (centres unmarked),1.19%
9,CCOc1ccc(-c2cc3cccc(OC)c3oc2=O)cc1,4.61%
10,O=C(O)C12CC3CC(C1)CC(n1ncc(NCc4ccc5c(c4)OCO5)c(Cl)c1=O)(C3)C2,-0.486%
11,CCOc1cccc2c1OC(c1ccc(C(=O)OC)cc1)N1N=C(c3ccc(C)o3)CC21 (centres unmarked),30.6%
12,CCC(C)Nc1nc2c(S(=O)(=O)c3ccccc3)nnn2c2ccsc12 (centres unmarked),-1.01%
13,COc1ccc2occ(CC(=O)Nc3nnc(C(C)C)s3)c2c1,0.401%
14,O=C(c1ccccc1)c1ccc2nc(NCc3ccccc3Cl)c3nncn3c2c1,-0.341%
15,CCN1CCCC1CNC(=O)CS(=O)Cc1nc(-c2ccc(OC)c(OC)c2)oc1C (centres unmarked),-8.65%
16,COc1cc2nc(Cl)n(C)c2cc1OC,-4.11%
17,Cn1nc(C(=O)N(CCCN2CCOCC2)Cc2ccco2)c2c1-c1ccccc1OC2,-1.72%
18,Clc1ccc(-n2nnc(-c3ccccc3)n2)cc1Cl,1.67%
19,O=C(O)[C@@H](c1ccccc1)N1C(=O)c2ccccc2C1=O,2.39%
20,COc1ccc(C(=O)Nc2ccc(C(C)C)cc2)cc1Cl,3.17%
21,COc1ccccc1C1CN(c2ccc(F)cc2F)N=C1c1cccs1 (centres unmarked),6.49%
22,CS(=O)(=O)N(CC(=O)Nc1ccc(Cl)cc1Cl)Cc1ccccc1,-3.78%
23,Cc1nc(O)c2c(n1)OC(N)=C(C#N)C2c1cccnc1 (centres unmarked),1.26%
24,CC(C)=CCC/C(C)=C\CC(C)(C)/C=N/O,-0.771%
25,CCc1cccc(C)c1NC(=O)c1cc(OC)cc(OC)c1,15.2%
26,Cc1ccc2oc(=O)c3cnn(CC(=O)Nc4cc(-c5ccccc5)[nH]n4)c3c2c1,-5.25%

row,Structure (SMILES),% Inhibition @ 10 uM
1,Cn1nc(C(=O)NC(c2ccccc2)c2ccccc2)c2ccccc2c1=O,-4.49%
2,COc1ccc(CCNC(=O)CCCCn2c(=O)[nH]c3ccsc3c2=O)cc1OC,-4.06%
3,Cc1cc(O)nc(N2CCOCC2)n1,1.91%
4,CCOC(=O)c1cc2cccc(OC)c2oc1=O,1.31%
5,CCCc1cc(C(=O)N2CCN(C(c3ccccc3)c3ccccc3)CC2)no1,-3.77%
6,COc1ccc(-c2cc(-c3ccccc3)nc(N3CCOCC3)n2)cc1OC,-2.6%
7,CC(C)(C)C(=O)NCCSc1nnnn1-c1ccccc1,-2.85%
8,CCCCCC(C)NC(=O)c1ccco1 (centres unmarked),-6.06%
9,CC(=O)N1c2ccccc2C(C)CC12CCCCC2 (centres unmarked),-4.32%
10,CCn1ccc(C(=O)Nc2ccccc2Sc2ccccc2)n1,0.5%
11,Clc1ccccc1-c1nc2c3cnn(Cc4ccccc4)c3ncn2n1,0.569%
12,CCCn1c(=O)c2sccc2n2c(CCCC(=O)N3CCCC3)nnc12,-0.212%
13,COc1ccccc1NC(=O)c1ccc(COc2ccccc2OC)cc1,-1.28%
14,Cc1cc(C)c2c(-n3cccc3)c(C(=O)NCc3cccnc3)sc2n1,0.623%
15,CC1(C)CC2CC(C)(CN2C(=O)C2CC(c3ccc(F)cc3)=NO2)C1 (centres unmarked),1.03%
16,CCOC(=O)c1c(NC(=O)Cc2ccccc2)sc(C(=O)NC2CCCC2)c1C,0.565%
17,C=CCn1c(=O)c(C(=O)Nc2nc3ccc(Br)cc3s2)c(O)c2ccccc21,-7.9%
18,O=C(CSc1nc(O)c2ccccc2n1)c1ccc(O)c(O)c1,3.05%
19,COc1ccc(CNc2nc(-c3cccnc3)nn2C(=O)Cc2ccccc2)cc1,-4.75%
20,CCOc1ccc(NS(=O)(=O)Cc2ccccc2)cc1,6.5%
21,CCn1c(C)nc2cc(C(=O)O)c(C(=O)O)cc21,-1.06%
22,Cc1ccc2c(=O)cc(C(=O)Nc3nc4ccc(S(C)(=O)=O)cc4s3)oc2c1C,-1.47%
23,CCCCNC(=O)CCc1nc(-c2cccc(C)c2)no1,-0.45%
